From the supplement of paper PMC11417369 come the findings set out here.

± gives the standard deviation of the averaged measurements. The list shows a part of the results.

In the experiment the test system is PfAP2-EXP AP2 domain (GST-tagged). Description: gcPBM binding intensity (ln(normalized median fluorescence intensity)); higher = stronger DNA binding. A digest of the protocol:
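Binding intensity is the highest Masliner-normalised natural-log median intensity over replicate spots in either probe orientation. To obtain it, GST-tagged P. falciparum DNA-binding domains made in E. coli were incubated for 1 h on an Agilent 4 × 180k array of primer-extended double-stranded 36-bp intergenic genomic probes plus negative controls. Detection used Alexa488 anti-GST antibody with scanning at 488 nm.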
As for “ATAGAACTGAATAAATCTATAAATAAATATATATAT [GTGCAC_negctrl_site604]”, the “gcPBM binding intensity (ln)” value was 9.16 ± 0.23. As for “TATTATAATGACTATAGTACATAATATTATTTATAT [XGTACX_site1977]”, the “gcPBM binding intensity (ln)” value stood at 8.43 ± 0.47. “TCATACCTACATAAAAAAAGGGAAACAAAATGTCAT [XGTACX_negctrl_site34]”: the “gcPBM binding intensity (ln)” value worked out at 8.57 ± 0.55. Turning to “AATAAATATAAATACACACCCATATATATATATATA [CACACA_site5436]”, the “gcPBM binding intensity (ln)” value is 10.2 ± 0.35.

Regarding ACCAATAAATATTTGGTGCATACATATATATATATA, the “gcPBM binding intensity (ln)” value worked out at 9.95 ± 0.26. As for “TTAAAAAAAAAAAAAAGTACACACTTATAAAATATT [XGTACX_site1630]”, the “gcPBM binding intensity (ln)” value stood at 8.4 ± 0.4. For the sequence “ATTTTTGTGACTAAGACATGCATAAGAGTAAAGAAA [TGCATGCA_site619]”, the “gcPBM binding intensity (ln)” value was found to be 9.14 ± 0.49. Turning to “ACATATATTATATAACGTACATAACACTATTTCCTT [XGTACX_site6938]”, the “gcPBM binding intensity (ln)” value amounted to 8.87 ± 0.26.

As to “TTTTTTTTTTGTAATTGTACTTTTTTAATACTTCTA [XGTACX_site4195]”, the “gcPBM binding intensity (ln)” value was 8.6 ± 0.33. Take “TATATATATATATTCACACATAAATATATGCACCCA [CACACA_site4263]”: the “gcPBM binding intensity (ln)” value is 9.96 ± 0.2.

Take “TATACATATATATACACACACATATATATATATATA [CACACA_site4]”: the “gcPBM binding intensity (ln)” value was determined as 10 ± 0.31. Turning to “AGTATAGTTATAAATTGTACATATTATTTATTTTAT [XGTACX_site949]”, the “gcPBM binding intensity (ln)” value was 8.44 ± 0.23. Turning to “TAAGTCGCCAAAAGGTGTACACATAATGCATTATCA [XGTACX_site8852]”, the “gcPBM binding intensity (ln)” value turned out to be 9.14 ± 0.37. Regarding “ATGGGGAATAATGAATGTACACAAATAAAAAGTTGG [XGTACX_site4015]”, the “gcPBM binding intensity (ln)” value amounted to 9.1 ± 0.47.

For “TAATATCATTTAGACACACACTCTTACAATCTGTAA [CACACA_site2590]”, the “gcPBM binding intensity (ln)” value is 8.2 ± 0.54. As to “AATCATTTATGGAAAGCATGCTAAATTAGAGTATAC [TGCATGCA_site172]”, the “gcPBM binding intensity (ln)” value turned out to be 9.29 ± 0.5.

Take “ATCTAAACCTTTTGAGCACACATATATATATATATA [CACACA_site8526]”: the “gcPBM binding intensity (ln)” value is 9.86 ± 0.7. On to “TAAAAATAAAAATAACGTACATACATACTTATATAT [XGTACX_site3745]”, for which the “gcPBM binding intensity (ln)” value came to 8.11 ± 0.17. For the sequence “TAATTTTTTTAAAACACACAAATATGTAAATATGTA [CACACA_site7769]”, the “gcPBM binding intensity (ln)” value worked out at 8.27 ± 0.41. Take “ATAAAATCTTAATCAACAAACAAACAAAAAAAAAAT [CACACA_negctrl_site1161]”: the “gcPBM binding intensity (ln)” value came out at 8.63 ± 0.73. As for “GATTTTCATATTTTTTGTACTTACATTTTTCTATAC [XGTACX_site6002]”, the “gcPBM binding intensity (ln)” value was determined as 9.01 ± 0.45. Take “TATGTGATATATTTATCACACATTATATATATATAT [CACACA_site5103]”: the “gcPBM binding intensity (ln)” value is 9.99 ± 0.22. For “TATGATGATGAATAACGTACAAAAAAATTAATCACC [XGTACX_site6794]”, the “gcPBM binding intensity (ln)” value turned out to be 8.94 ± 0.42. As for “TACATTTTTATTTTTACACACATATTTATTTATATA [CACACA_site6609]”, the figure is 8.74 ± 0.55; as for “TAATATGAAAAGTGTACACACGCACAGACAAAAAAA [CACACA_site5594]”, 9.21 ± 0.54; as for “GCATAAATCAGACACACACACATATATAAATATGTA [CACACA_site7187]”, 8.4 ± 0.34. Turning to “AATATTTAATTCAACACACATACATATTTATTAAAA [CACACA_site2342]”, the “gcPBM binding intensity (ln)” value came out at 8.32 ± 0.52. For “ATTCATTTTAATATGGGTACATAAAAATAAAAAGAA [XGTACX_site2801]”, the “gcPBM binding intensity (ln)” value came out at 8.75 ± 0.13. On to “TGTTTATTTTTTTTATGTACTTATTTTTTATTGCAT [XGTACX_site719]”, for which the “gcPBM binding intensity (ln)” value stood at 9.04 ± 0.32. Take “ATAAATATATGGTTTCATTATATTAAATTCAATTTA [CACACA_negctrl_site213]”: the “gcPBM binding intensity (ln)” value turned out to be 8.04 ± 0.32. With “AACTTATTAAGCCCTCCACATTTCTCTACTACAACT [CACACA_negctrl_site1552]”, the “gcPBM binding intensity (ln)” value amounted to 8.61 ± 0.43. As for “TCTATTTTTCTAATTTGTACATAGCTTTGAGTTAGT [XGTACX_site8977]”, the figure is 8.71 ± 0.5; as for “AACTTCTTTTTTATAACACACAAAATATATATACAA [CACACA_site282]”, 8.69 ± 0.42. With “AGATAAAATATATACACACACATAAATACGTACAAA [CACACA_site1086]” the figure was 9.12 ± 0.45; with “AAAAGAATGAAACATAATAAATTACATTAAAATAAT [CACACA_negctrl_site897]”, 8.42 ± 0.33.

As to “AATAAATAAATAAGTACACACATATATATATATATA [CACACA_site284]”, the “gcPBM binding intensity (ln)” value is 10.2 ± 0.6. Consider “GGCATACACAGACACACACACACACCCACATATATA [CACACA_site591]”, for which the “gcPBM binding intensity (ln)” value turned out to be 8.79 ± 0.4. “TAATTATCACATTGCACACACATTTCCTTTTACATT [CACACA_site3443]”: the “gcPBM binding intensity (ln)” value is 9.05 ± 0.38. With “ATTTTTTTATTTTGTGCACACACATAAAAATATATA [CACACA_site762]” the figure was 8.89 ± 0.12. For “AAATTATTATGAAATGGAAAATGCATAAATTGTTTT [XGTACX_negctrl_site206]”, the “gcPBM binding intensity (ln)” value was 8.63 ± 0.48. “ATTAAATAATAATAATGTACGTATTATATTAATACA [XGTACX_site5439]”: the “gcPBM binding intensity (ln)” value was 8.43 ± 0.17. With “TAAAATTTAAAATATACACACAAAAAGTTATTACAA [CACACA_site4080]” the figure was 8.4 ± 0.47. With “ATTCTTTACTCATAAAATTATATTATATAAACTTTT [XGTACX_negctrl_site554]” the figure was 8.61 ± 0.49; with “CTCTTTAAAAATATGGGTACAAAAAAAAAAAAAATA [XGTACX_site6185]”, 8.5 ± 0.58.
